The values that follow come from article PMC4242493.

Some of the results follow. The list includes weakly bound sequences.

This test has as its target MaxL homodimer (UniProt P61244). Briefly: universal protein-binding microarray (PBM). The settings on record: PBS-based mixture, 10 nM His-tagged protein dimer, 2% milk, 200 ng/uL BSA, 50 ng/uL salmon testes DNA, 0.02% TX-100; detection with Alexa 488 anti-His …; high values mean tight binding; most listed sequences are background and not binding sites; double strand, one strand shown.
Chain of UniProt P61244 (P61244 whole entry): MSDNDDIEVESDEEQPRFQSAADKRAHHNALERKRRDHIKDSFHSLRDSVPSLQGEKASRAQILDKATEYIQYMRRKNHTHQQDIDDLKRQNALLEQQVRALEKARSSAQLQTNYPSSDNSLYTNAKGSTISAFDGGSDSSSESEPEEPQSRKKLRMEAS
For CATATTCG, the binding signal (normalized occupancy) is 0.0814.
Next, AGATTCAT: 0.078; GGGACGAA: 0.0687.
As for CTGTCCTA, the binding signal (normalized occupancy) was found to be 0.0723.
Turning to CCTTTGGC, the binding signal (normalized occupancy) worked out at 0.0703.
On to AGATCTGC, for which the binding signal (normalized occupancy) is 0.0741.
Regarding CTCGGCGA, the binding signal (normalized occupancy) stood at 0.0687.
As to ATAAATCC, the binding signal (normalized occupancy) amounted to 0.0781.
Regarding CGTCACGA, the binding signal (normalized occupancy) was 0.0766.
In the case of CATCCGTC, the binding signal (normalized occupancy) was determined as 0.0789.
Take ATCGTCTG: the binding signal (normalized occupancy) stood at 0.0761.
For the sequence ATACTCGG, the binding signal (normalized occupancy) was 0.0764.
With GGCCAAAA, the binding signal (normalized occupancy) was found to be 0.0691.
Next, ACAGTGCA: 0.0754; CCCGATCA: 0.0749; CGACGTGA: 0.0883.
Take CATAGTAC: the binding signal (normalized occupancy) came to 0.0755.
For ATCTGAGC, the binding signal (normalized occupancy) is 0.0747.
The figure for CCGACATC is 0.0772; for CAGGACTC it is 0.0682.
With AATCCTGA, the binding signal (normalized occupancy) was found to be 0.0752.
Turning to CATCACCA, the binding signal (normalized occupancy) was 0.0798.
On to ATCATTGG, for which the binding signal (normalized occupancy) came to 0.0775.
Turning to GACCTATC, the binding signal (normalized occupancy) was determined as 0.0732.
Consider CTAGAAAC, for which the binding signal (normalized occupancy) was 0.0803.
The figure for GCAGGCCC is 0.0707; for AGTTGGGA it is 0.0709; for GCGGTCTA it is 0.0713.
ATATAGCC: the binding signal (normalized occupancy) came to 0.0832.
Take ATGCTCGA: the binding signal (normalized occupancy) was 0.0758.
The figure for CCCCGACG is 0.0767; for ACTTTTAT it is 0.0748.
Next, GGGGACCC: 0.0712; TGAAGTCA: 0.0773.
The figure for GCCAAGTA is 0.075.
Consider GACTGGGA, for which the binding signal (normalized occupancy) was determined as 0.0742.
In the case of CAGGGGTA, the binding signal (normalized occupancy) stood at 0.078.
For ATAAAGAC, the binding signal (normalized occupancy) was found to be 0.0757.
Turning to GAACCCTC, the binding signal (normalized occupancy) was determined as 0.0726.
For the sequence AGTGCTCG, the binding signal (normalized occupancy) was determined as 0.0762.
For ACACTATC, the binding signal (normalized occupancy) was 0.0773.
The figure for AAAGATCT is 0.0773.
The figure for ACGCTTCC is 0.0742; for GGTTCCCA it is 0.0768.
Consider CAGGACAG, for which the binding signal (normalized occupancy) came to 0.0687.
With CGTATCAG, the binding signal (normalized occupancy) amounted to 0.0743.
As for GGTCGATA, the binding signal (normalized occupancy) is 0.078.
With ATGAACGG, the binding signal (normalized occupancy) is 0.0783.
With GGATGATA, the binding signal (normalized occupancy) worked out at 0.08.
For the sequence ACTCAACG, the binding signal (normalized occupancy) stood at 0.0735.
The figure for AGTCATGA is 0.0829; for GGAATTTA it is 0.0731; for GACACTGA it is 0.0732.
Take GCTAGCTA: the binding signal (normalized occupancy) came out at 0.0692.
Consider AGTTACGA, for which the binding signal (normalized occupancy) came out at 0.0728.
The figure for CTCCACAA is 0.0785; for AGCAACGC it is 0.0759.
Turning to ATAATGTA, the binding signal (normalized occupancy) was determined as 0.0785.
The figure for GATGCCGC is 0.0728; for CGTGAAGC it is 0.0768; for ACTCGCAC it is 0.0754.
Next, ACCCTTGG: 0.073; CCATGACA: 0.0836.
In the case of ACATAGTA, the binding signal (normalized occupancy) came out at 0.0805.
Regarding CCCACCCC, the binding signal (normalized occupancy) is 0.0962.
In the case of GCTAAACC, the binding signal (normalized occupancy) amounted to 0.068.
Consider CGGGGTAG, for which the binding signal (normalized occupancy) amounted to 0.0745.
Consider ATCCTCGC, for which the binding signal (normalized occupancy) was found to be 0.0792.
Take AACTCGGA: the binding signal (normalized occupancy) stood at 0.0717.
The figure for AAGTGACA is 0.0696; for CCGGTCGA it is 0.0704.
Consider CGACTAGC, for which the binding signal (normalized occupancy) amounted to 0.0689.
With GCCATCGC, the binding signal (normalized occupancy) turned out to be 0.0707.
The figure for AATTTATC is 0.0771; for TAAGAATA it is 0.0806.
In the case of AAAGCGGA, the binding signal (normalized occupancy) came to 0.0709.
Regarding AAACGCAC, the binding signal (normalized occupancy) stood at 0.0809.
The figure for ATAAGCCC is 0.0759.
Turning to ATTGCACC, the binding signal (normalized occupancy) came to 0.0832.
AGAGAGAA: the binding signal (normalized occupancy) came out at 0.0699.
Consider TCATTGAA, for which the binding signal (normalized occupancy) came to 0.0753.
AAATATAC: the binding signal (normalized occupancy) stood at 0.0881.
Next, ACAACGCT: 0.0803; GACCCACA: 0.0775; GAGCCTGC: 0.071.
The figure for ACTCGCAG is 0.0677; for AAGCGTCA it is 0.0737; for GAGAGCGA it is 0.0704.
For CTGATACA, the binding signal (normalized occupancy) turned out to be 0.0809.
As to AAAGTGGC, the binding signal (normalized occupancy) amounted to 0.0672.
For GAGGGGGC, the binding signal (normalized occupancy) worked out at 0.0771.
As for AGCGCAAA, the binding signal (normalized occupancy) came to 0.0664.
For the sequence ACCAACGT, the binding signal (normalized occupancy) came out at 0.0789.
The figure for GGCAACCC is 0.0699; for AAATCACT it is 0.0745.
Next, CCTAGCCA: 0.0783.
Consider GATGTAGA, for which the binding signal (normalized occupancy) was found to be 0.0799.
Next, ATACTGTG: 0.0808; CAATGTGC: 0.0924.
For the sequence ACTCGGAT, the binding signal (normalized occupancy) amounted to 0.074.
In the case of CTCATAGC, the binding signal (normalized occupancy) came to 0.0789.
Next, AATGATCC: 0.0784.
Consider ATCAAGAG, for which the binding signal (normalized occupancy) came to 0.0749.
On to CGTCTAAG, for which the binding signal (normalized occupancy) was found to be 0.0723.
Next, GAATTGTA: 0.0744; ACTTCCAA: 0.07.
Take GCACTAAA: the binding signal (normalized occupancy) stood at 0.0704.
On to GTGGCTGA, for which the binding signal (normalized occupancy) amounted to 0.0794.
For the sequence AGATTAGA, the binding signal (normalized occupancy) was determined as 0.0745.
Take AGCCCATG: the binding signal (normalized occupancy) came out at 0.0859.
In the case of GCTCGAGC, the binding signal (normalized occupancy) came out at 0.0735.
As to CTCATACA, the binding signal (normalized occupancy) is 0.0799.
As to ACAGCGCT, the binding signal (normalized occupancy) is 0.0737.
AATGCAAA: the binding signal (normalized occupancy) is 0.078.
On to ACTGCAAC, for which the binding signal (normalized occupancy) stood at 0.0754.
Take ATCGCTCC: the binding signal (normalized occupancy) amounted to 0.0708.
AGATATCG: the binding signal (normalized occupancy) stood at 0.0755.
Turning to GAAGCAAC, the binding signal (normalized occupancy) was determined as 0.0766.
The figure for AGTCAGGA is 0.0709.
As for ATGGAACG, the binding signal (normalized occupancy) worked out at 0.0825.
With CATCACCC, the binding signal (normalized occupancy) amounted to 0.0788.
As for AAAATCTA, the binding signal (normalized occupancy) turned out to be 0.0767.
For the sequence TAGGGCCA, the binding signal (normalized occupancy) was 0.0687.
Next, GACCAGCA: 0.0755; CTCGGGCC: 0.0685; GCGCTCGA: 0.0726.
With GGGAGAAA, the binding signal (normalized occupancy) was determined as 0.0747.
For CACCATGC, the binding signal (normalized occupancy) is 0.108.
For ATCAGAAC, the binding signal (normalized occupancy) was 0.075.
For the sequence AGGTATAT, the binding signal (normalized occupancy) came out at 0.0856.
The figure for ACACAGTA is 0.0795; for CACCTTAG it is 0.0719.
In the case of CTTGAGTA, the binding signal (normalized occupancy) worked out at 0.0664.
Take AGCGCCTG: the binding signal (normalized occupancy) is 0.0742.
On to GACATCTA, for which the binding signal (normalized occupancy) amounted to 0.072.
The figure for ATAACACC is 0.081.
Regarding GGACGCAC, the binding signal (normalized occupancy) was 0.0836.
As for AAGTATGT, the binding signal (normalized occupancy) turned out to be 0.0819.
Take CCGCCTTC: the binding signal (normalized occupancy) amounted to 0.0732.
Next, CGGAGGCC: 0.0623; CCGGCTCG: 0.0672.
The figure for CATGCCGA is 0.102; for ACGTGGTC it is 0.106.
AACTCTTA: the binding signal (normalized occupancy) worked out at 0.0707.
Next, CCTCTATC: 0.0748.
In the case of TAATCGAA, the binding signal (normalized occupancy) turned out to be 0.079.
Turning to GCGCTGAC, the binding signal (normalized occupancy) was found to be 0.0768.
On to ATAATCAC, for which the binding signal (normalized occupancy) was 0.0829.
For ACCTGGTC, the binding signal (normalized occupancy) was 0.0739.
Next, TGATCGCA: 0.0847; GGTCTAAC: 0.0697.
Take GACCAGGC: the binding signal (normalized occupancy) came to 0.0752.
Next, ACAAGTTG: 0.0751.
For AGGGGCTC, the binding signal (normalized occupancy) turned out to be 0.073.
As to CATCTGAC, the binding signal (normalized occupancy) was 0.0791.
The figure for AAAGTAAA is 0.0701; for GCCCACCA it is 0.0804.
Next, CATTGATA: 0.078; CTTGCCTA: 0.0693.
As to GCAACCGC, the binding signal (normalized occupancy) came to 0.068.
The figure for AATACACA is 0.0926; for TAACAGCA it is 0.0789.
In the case of ACCGATTC, the binding signal (normalized occupancy) was 0.0693.
Regarding ACTGAACT, the binding signal (normalized occupancy) was determined as 0.0716.
Consider AGCGGTGC, for which the binding signal (normalized occupancy) came out at 0.0675.
For the sequence CATTTTGC, the binding signal (normalized occupancy) is 0.0761.
Take GCTATATA: the binding signal (normalized occupancy) amounted to 0.0859.
With AGGGGTGC, the binding signal (normalized occupancy) amounted to 0.0846.
With CAACTATC, the binding signal (normalized occupancy) amounted to 0.0737.
CGTAGCGC: the binding signal (normalized occupancy) amounted to 0.0712.
Consider CACATATC, for which the binding signal (normalized occupancy) was found to be 0.0837.
As to AATTTTCA, the binding signal (normalized occupancy) was 0.0736.
